# Measurements: PubChem BioAssay AID1347165 (National Center for Advancing Translational Sciences (NCATS), 2019)
# The campaign covered roughly 220,000 compounds. About 5,700 (2.6%) were called active. Inconclusive results, whose numbers are uncertain, are shown with a selection of clear calls. Calls follow the shape of the dose curve; as a rule, active = well fitted inhibition curve with a large enough effect; inconclusive = small, poorly fitted or top-dose-only effect; inactive = no such curve, though single readings can be large or run the other way. Potencies beside an inconclusive call are fits to weak or partial responses and may not hold up.
# Target: Lysine-specific demethylase 5B (Homo sapiens) (UniProt Q9UGL1)
# Experiment: Primary screen for KDM5B Histone Demethylases FDH-coupled qHTS; also: nearly all actives have a fitted effect of over 70% in size
# Details: FDH-coupled NADH fluorescence (FDH is formaldehyde dehydrogenase); series mostly up to 57.7 µM
# In short: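 qHTS format, multiple compound concentrations. Buffer 50 mM HEPES pH 7.5/0.01% Tween-20; 200 nM KDM5BΔAP final; 10 min compound preincubation; substrate-mix levels 12.5 µM peptide, 25 µM α-KG, 0.25 mM NAD⁺; 30 min RT; ΔRFU.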
# Potency is read from the fitted curve at half-maximal effect; tags tell the direction and shape of the fitted curve.
# UniProt Q9UGL1, sequence (Q9UGL1 whole entry, looked up): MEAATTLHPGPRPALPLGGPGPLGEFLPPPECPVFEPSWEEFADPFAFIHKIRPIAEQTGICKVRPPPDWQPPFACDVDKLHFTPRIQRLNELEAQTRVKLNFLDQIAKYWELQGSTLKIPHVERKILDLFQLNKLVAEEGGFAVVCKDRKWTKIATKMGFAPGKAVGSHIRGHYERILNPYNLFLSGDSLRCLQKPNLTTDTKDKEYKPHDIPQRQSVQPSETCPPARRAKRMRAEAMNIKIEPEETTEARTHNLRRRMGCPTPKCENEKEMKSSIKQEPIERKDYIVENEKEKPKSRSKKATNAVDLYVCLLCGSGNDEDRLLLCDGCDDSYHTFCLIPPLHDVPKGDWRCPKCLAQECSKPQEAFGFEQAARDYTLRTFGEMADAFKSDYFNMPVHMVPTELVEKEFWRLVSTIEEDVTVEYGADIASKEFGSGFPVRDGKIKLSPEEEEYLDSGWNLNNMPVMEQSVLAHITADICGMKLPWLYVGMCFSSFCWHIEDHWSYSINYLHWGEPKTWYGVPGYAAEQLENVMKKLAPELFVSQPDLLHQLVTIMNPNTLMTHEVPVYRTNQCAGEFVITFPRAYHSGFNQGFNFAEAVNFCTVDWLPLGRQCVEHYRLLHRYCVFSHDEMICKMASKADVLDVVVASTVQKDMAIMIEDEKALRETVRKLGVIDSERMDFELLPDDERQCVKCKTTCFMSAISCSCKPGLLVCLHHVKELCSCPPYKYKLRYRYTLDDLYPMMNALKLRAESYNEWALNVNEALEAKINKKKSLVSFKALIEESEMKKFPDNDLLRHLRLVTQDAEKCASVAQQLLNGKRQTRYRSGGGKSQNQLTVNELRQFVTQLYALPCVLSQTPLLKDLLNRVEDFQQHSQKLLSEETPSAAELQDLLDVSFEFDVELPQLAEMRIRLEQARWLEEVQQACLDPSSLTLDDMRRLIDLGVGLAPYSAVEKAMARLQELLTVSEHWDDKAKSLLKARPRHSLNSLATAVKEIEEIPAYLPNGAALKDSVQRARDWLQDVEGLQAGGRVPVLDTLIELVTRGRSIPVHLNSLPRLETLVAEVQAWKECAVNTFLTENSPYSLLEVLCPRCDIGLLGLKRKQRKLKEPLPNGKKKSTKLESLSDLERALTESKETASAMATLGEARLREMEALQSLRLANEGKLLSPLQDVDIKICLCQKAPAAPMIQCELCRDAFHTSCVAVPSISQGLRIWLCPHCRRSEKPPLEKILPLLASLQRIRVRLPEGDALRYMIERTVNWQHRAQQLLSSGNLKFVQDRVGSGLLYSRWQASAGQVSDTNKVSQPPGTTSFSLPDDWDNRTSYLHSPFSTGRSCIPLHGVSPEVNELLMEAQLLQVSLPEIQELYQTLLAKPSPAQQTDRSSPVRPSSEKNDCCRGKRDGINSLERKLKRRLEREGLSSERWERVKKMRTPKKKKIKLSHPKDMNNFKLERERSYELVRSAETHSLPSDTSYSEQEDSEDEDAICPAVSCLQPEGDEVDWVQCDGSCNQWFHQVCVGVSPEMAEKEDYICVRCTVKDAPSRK
row,SMILES,Potency
1,COCC1CN(C(C)=O)CC12CCN(Cc1cccnc1)CC2 (stereo not given),"inconclusive: 31.6 µM [inhibitor, partial curve, poor fit]"
2,O=C(CCc1cc2n(n1)CCCNC2)NC1CCCN(c2ncccn2)C1 (stereo not given),"inconclusive: 20 µM [inhibitor, single point]"
3,COc1ccc(-c2cnc3[nH]cc(CC(=O)N4CCC(OC)CC4)c3c2)cc1,active: 35.5 µM
4,N#Cc1ccccc1CN1CC[C@H]2C(=O)NCCCCCCN(Cc3ccncc3)[C@@H]2C1,"inconclusive: 20 µM [inhibitor, partial curve, poor fit]"
5,NC(=O)c1nnn([C@H]2C[C@H]3C(=O)N4CC[C@H](NC(=O)c5cccs5)[C@H]4C(=O)N3C2)c1C(N)=O,"inconclusive: 35.5 µM [inhibitor, single point]"
6,COc1ccc(Cn2cc(C(C(=O)O)N(C)Cc3nnc(C)o3)cn2)cc1 (stereo not given),"inconclusive: 12.6 µM [inhibitor, partial curve]"
7,COc1ccccc1-c1cnc(Nc2cccc(N[S+](C)(=O)[O-])c2)c2c1CCO2,active: 25.1 µM
8,NC(=O)c1cccc(-c2n[nH]c3c2CC(=O)N(CC2CCOCC2)C3)c1,"inconclusive: 2.24 µM [inhibitor, full curve]"
9,N#Cc1c(C(F)(F)F)cc(-c2cccs2)nc1SCc1ccccc1F,"inconclusive: 10 µM [inhibitor, partial curve, poor fit]"
10,COc1cccc(-c2nc(-c3ccc4c(c3)CCC4)cs2)c1OC,inactive
11,Cc1cc(C(=O)N2CCC3(CC2)NCCc2c3[nH]c3ccccc23)nn1C,"inconclusive: 31.6 µM [inhibitor, partial curve, poor fit]"
12,CCOc1ccccc1CNS(=O)(=O)c1cc(-c2onc(C)c2C)ccc1OC,"inconclusive: 14.1 µM [inhibitor, partial curve, poor fit]"
13,Cc1noc(C)c1-c1cc2c(cc(C)n2CCN(C)C)c(-c2ccccc2)n1,active: 31.6 µM
14,O=C(O)C/C(=C/c1csc(-c2ccc(F)cc2)n1)c1nc2ccccc2s1,"inconclusive: 28.2 µM [inhibitor, partial curve, poor fit]"
15,CS(=O)(=O)N1CCC(OC2CCN(C(=O)Cc3c[nH]c4ccccc34)CC2)CC1,inactive
16,Cc1ccsc1-c1nc(-c2nnn3c2COC(c2ccccc2Cl)C3)no1 (stereo not given),inactive
17,Cc1noc(-c2cccs2)c1C(=O)N(C)Cc1ccccc1,inactive
18,O=C(NC1CCN(c2cc(-c3ccccc3)[nH]n2)C1)c1ccc2cc[nH]c2c1 (stereo not given),"inconclusive: 25.1 µM [inhibitor, partial curve, poor fit]"
19,CCOc1ccc(-n2nc(CO)c(C(=O)NCC(C)O)n2)cc1 (stereo not given),"inconclusive: 25.1 µM [inhibitor, partial curve, poor fit]"
20,Cc1cccc(N2Cc3c(NC4CCCC4)ncnc3N(C)CC2=O)c1,"inconclusive: 79.4 µM [inhibitor, partial curve]"
21,Cc1c(C(=O)N2CCCCCC2)c(S(=O)(=O)N2c3ccccc3CC2C)c(C)n1C (stereo not given),inactive
22,C[S+](=O)([O-])c1ccc(-c2nc(C(=O)NCc3ccc(F)cc3)n3ccncc23)cc1,inactive

row,SMILES,Potency
1,Cc1ccc(NC(=O)c2ccc(Cn3ccn4nc5c(c4c3=O)CCCC5)cc2)cc1,"inconclusive: 15.8 µM [inhibitor, partial curve]"
2,CC(NC(=O)NCCNc1cnccn1)c1ccc(C#N)cc1 (stereo not given),"inconclusive: 22.4 µM [inhibitor, partial curve, poor fit]"
3,COc1cccc(CNC(=O)COc2ccc3c(C)cc(=O)oc3c2)c1,"inconclusive: 31.6 µM [inhibitor, single point]"
4,CN(Cc1ccc2nsnc2c1)Cc1cc2n(n1)CCCNC2,"inconclusive: 20 µM [inhibitor, single point]"
5,CCCCOC(=O)COc1ccc(S(=O)(=O)c2ccc(OCC(=O)OCCCC)cc2)cc1,inactive
6,CCN(CC)C(=O)Oc1ccc2oc(=O)c(-c3ccccc3)c(C)c2c1,inactive
7,O=S(=O)(Nc1ccc(Br)cc1F)c1ccccc1,inactive
8,C=C(C)COc1ccc2c(C)c(CC(=O)NCc3ccc4c(c3)OCO4)c(=O)oc2c1,"inconclusive: 1.78 µM [inhibitor, partial curve, poor fit]"
9,Nc1c(C(=O)NCc2ccc(Cl)cc2)sc2nc(-c3ccc(F)cc3)ccc12,"inconclusive: 31.6 µM [inhibitor, partial curve, poor fit]"
10,Cc1ccc(-c2cc(C(=O)Nc3ccccc3C)c3ccccc3n2)o1,"inconclusive: 25.1 µM [inhibitor, partial curve, poor fit]"
11,O=C(C1CC1)N1CCCN(c2nc3ncccc3o2)CC1,"inconclusive: 28.2 µM [inhibitor, partial curve]"
12,COc1ccc(-c2n[nH]c3c2CC(=O)N(Cc2ccccn2)C3)cn1,"inconclusive: 28.2 µM [inhibitor, partial curve, poor fit]"
13,COC(=O)[C@@H]1Cc2ncn(Cc3ccc(OC)cc3)c2CN1C(=O)CC(C)(C)C,"inconclusive: 44.7 µM [inhibitor, partial curve, poor fit]"
14,COc1ccc2c(C)c(CCC(=O)Nc3c(C)cccc3C)c(=O)oc2c1,inactive
15,CC(C)(C)c1cc(C(=O)O)c(O)c(C(C)(C)C)c1,"inconclusive: 20 µM [inhibitor, partial curve, poor fit]"
16,Clc1ccc(-c2nnc([C@H]3CCN(Cc4c[nH]c5ccccc45)C3)o2)cc1,"inconclusive: 39.8 µM [inhibitor, partial curve, poor fit]"
17,O=C(NCc1nnc2c(-c3nc(C4CC4)no3)cccn12)c1cc(Cl)ccc1F,active: 28.2 µM
18,CC(NC(=O)/C=C/c1ccc(Cl)cc1Cl)C1CC2CCC1C2 (stereo not given),inactive
19,CCOc1ccc(CNC(=O)CCS(=O)(=O)c2cc3c4c(c2)CCN4C(=O)CC3)cc1OC,inactive
20,COc1ccc(NC(C)=O)cc1NC(=O)CCc1c[nH]c2ccccc12,inactive
21,CC(=O)c1ccc(OCc2ccccc2C)cc1,inactive
22,Cc1ccc(N2CCN(C(=O)c3cnn(-c4ccc(C)c(C)c4)c3C3CCNCC3)CC2)c(C)c1,"inconclusive: 35.5 µM [inhibitor, partial curve, poor fit]"

row,SMILES,Potency
1,CCc1ccc(OCC(=O)Nc2ccc3oc(-c4ccccc4)nc3c2)c(-n2cnnc2)c1,"inconclusive: 2 µM [inhibitor, full curve, poor fit]"
2,CN(Cc1ccccc1CN1CCCC1)c1nccc(-c2ccccn2)n1,"inconclusive: 15.8 µM [inhibitor, partial curve, poor fit]"
3,Cc1ccc(CN2CC[C@@H]3[C@H]2C(=O)NC[C@H](CCC(=O)NCc2ccco2)N3C)cc1,"inconclusive: 22.4 µM [inhibitor, partial curve, poor fit]"
4,Cc1ccc(OCC(=O)NCc2c(C)ncc3c2CCNC3)cc1C,"inconclusive: 8.91 µM [inhibitor, partial curve, poor fit]"
5,CCOc1cc(CNC(=O)c2ccc3c(c2)N(C)C(=O)C2CCCCN32)ccc1OC (stereo not given),"inconclusive: 14.1 µM [inhibitor, partial curve, poor fit]"
6,COc1ccc(OC)c(NC(=O)CN2CCCN(Cc3ccccc3Cl)S2(=O)=O)c1,"inconclusive: 14.1 µM [inhibitor, single point]"
7,CCOc1cccc2cc(S(=O)(=O)N3CCCCCC3)c(=O)oc12,inactive
8,CC(=O)Nc1ccc(C(=O)N2CCC3(CC2)N=C(c2cccc(Br)c2)NO3)cc1,"inconclusive: 35.5 µM [inhibitor, partial curve, poor fit]"
9,CCCn1c2ccccc2c2cnn(CC(=O)NCCN(C)C)c(=O)c21,"inconclusive: 25.1 µM [inhibitor, partial curve, poor fit]"
10,COc1ccccc1NC(=O)c1cn(-c2ccccc2)nc1-c1ccccc1,"inconclusive: 39.8 µM [inhibitor, single point]"
11,O=C(CCS(=O)(=O)c1ccc(F)cc1)Nc1ccccc1-c1ccccc1,"inconclusive: 28.2 µM [inhibitor, partial curve, poor fit]"
12,N#Cc1nc(/C=C/c2ccc(F)cc2)oc1NCc1ccc(F)cc1,"inconclusive: 31.6 µM [inhibitor, partial curve, poor fit]"
13,c1ccc(C2=Nn3c(nnc3-c3cnccn3)SC2)cc1,inactive
14,Cc1ccc(Nc2nnc(SCC(=O)c3ccc(Cl)s3)s2)c(C)c1,inactive
15,Cc1ccc(C(=O)N2CCC3(CC2)N=C(c2ccc(Cl)cc2)NO3)cc1,"inconclusive: 31.6 µM [inhibitor, single point]"
16,CCc1nc(CN2CCOc3c(O)cc(-c4nc(C)cnc4C)cc3C2)no1,inactive
17,N#Cc1ccc(CN2CCC3(CC(c4cccc(C(F)(F)F)c4)=NO3)C2)cc1 (stereo not given),"inconclusive: 39.8 µM [inhibitor, partial curve, poor fit]"
18,CCN1CCN(C(c2ccccc2Cl)c2c(O)cc(C)n(Cc3ccco3)c2=O)CC1 (stereo not given),"inconclusive: 28.2 µM [inhibitor, single point]"
19,O=S(=O)(c1ccc(Cl)s1)N1CCC(n2c(C(F)(F)F)nc3cccnc32)CC1,inactive
20,CCCCc1nc(N2CCN(CCO)CC2)c(C#N)c2c1CCCC2,"inconclusive: 31.6 µM [inhibitor, partial curve, poor fit]"
21,CC1CCN(CCCNC(=O)C2CCCN(Cc3ccncc3)CCC(=O)NCC2)CC1 (stereo not given),"inconclusive: 35.5 µM [inhibitor, partial curve, poor fit]"
